Hit rate of the full screen: of about 280,000 compounds, about 100 (0.036%) were called active. Inconclusive results, whose numbers are uncertain, are shown with a selection of clear calls. Calls follow the shape of the dose curve; as a rule, active = well fitted inhibition curve with a large enough effect in the signal ratio, with a control signal flat (not every such curve was filed as active); inconclusive = small, poorly fitted or top-dose-only effect, or effect the other way, or a change in a side signal; inactive = no such curve, though single readings can be large or run the other way; the % refers to the signal ratio. A potency beside an inconclusive call is a rough fit, not a confirmed value. “Side channel” marks fits to a control or component signal instead of the main read-out.
The compounds below were run against Muscleblind-like protein 1 (Homo sapiens) (UniProt Q9NR56) (assay: qHTS Assay for Inhibitors of MBNL1-poly(CUG) RNA binding). Conditions: TR-FRET MBNL1-His/biotin-(CUG)12 binding, 665/545 ratio; activity change, negative = inhibition: at 57.5 µM (top of the series).
Procedure, shortened: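 His-tagged MBNL1 binding to biotinylated (CUG)12 RNA was measured by TR-FRET using terbium anti-His antibody (0.055 ng/ul final) and streptavidin-XL665 (5 nM final). Compounds were titrated 92 nM to 58 uM; 60 min at room temperature.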
% is scaled to controls: 0 for no effect and ±100 for the full control effect; potency is read from the fitted curve at half-maximal effect; tags tell the direction and shape of the fitted curve or compound fluorescence and quenching.

Chain of UniProt Q9NR56 (Q9NR56 whole entry, looked up): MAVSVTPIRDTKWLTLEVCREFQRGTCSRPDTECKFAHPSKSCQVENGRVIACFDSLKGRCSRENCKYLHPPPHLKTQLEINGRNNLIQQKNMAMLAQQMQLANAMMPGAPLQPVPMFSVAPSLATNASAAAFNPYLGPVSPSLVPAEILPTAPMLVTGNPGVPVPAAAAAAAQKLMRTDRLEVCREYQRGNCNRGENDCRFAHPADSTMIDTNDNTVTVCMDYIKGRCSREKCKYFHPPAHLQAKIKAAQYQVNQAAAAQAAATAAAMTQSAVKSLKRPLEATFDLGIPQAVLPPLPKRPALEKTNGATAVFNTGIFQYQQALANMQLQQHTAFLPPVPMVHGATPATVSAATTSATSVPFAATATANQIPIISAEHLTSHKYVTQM

SMILES | Potency | activity change, negative = inhibition
CCOC(=O)c1ccc(-c2ccc(C(=O)Nc3cccnc3)o2)cc1 | inconclusive: 15.8 µM [quencher, side channel, partial curve] | 
Cn1c(=O)n(C)c2cc([N+](=O)[O-])c(N3CCN(C(=O)c4cccc(Cl)c4)CC3)cc21 |  | inconclusive: 25.4% [phenotype inactive]
O=C(NCc1ccc2c(c1)OCO2)C1CC(=O)N(c2ccc(F)cc2)C1 (stereo not given) | inconclusive: 8.91 µM [quencher, side channel, single point] | 
O=C(CCN1C(=O)/C(=C\c2ccccc2F)SC1=S)Nc1ccc(C(=O)O)c(O)c1 | inconclusive: 14.1 µM [quencher, side channel, partial curve] | 
Cc1cc2nc(-c3cccnc3SCC(=O)NCc3ccco3)[nH]c2cc1C | inactive | 
O=C(COC(=O)c1ccccc1NC(=O)c1ccco1)Nc1ccc2c(c1)OCO2 | inactive | 
CCNC(=O)c1c(O)c2ccccc2[nH]c1=O | inactive | 
COc1ccc(/C(C)=N/Nc2ccc(C(=O)O)cc2)cc1OC | inconclusive: 11.2 µM [quencher, side channel, partial curve] | 
CC1CN(c2nc(Nc3ccccc3)nc(N)c2[N+](=O)[O-])CC(C)O1 (stereo not given) | inconclusive: 31.6 µM [quencher, side channel, single point] | 
O=C(O)CN1C(=O)CCS(=O)c2ccccc21 (stereo not given) | inconclusive: 5.62 µM [quencher, side channel, single point] | 
Cn1c(CNC(=O)Nc2cccc(Cl)c2)nnc1SCc1ccccc1 | inconclusive: 50.1 µM [inhibitor, partial curve] | 
NC(=O)CC(NC(=O)Cc1ccc(Cl)cc1)c1ccc(NCCN2CCOCC2)c([N+](=O)[O-])c1 (stereo not given) | inconclusive: 20 µM [quencher, side channel, partial curve] | 
O=C(O)c1cc([N+](=O)[O-])c(N2CCCC2)c([N+](=O)[O-])c1 | inconclusive: 14.1 µM [quencher, side channel, partial curve] | 
CC1CCN(c2ccc(C=O)o2)CC1 | inconclusive: 17.8 µM [quencher, side channel, partial curve] | 
Cc1cccc(NC2=C/C(=N/S(=O)(=O)c3cccs3)c3ccccc3C2=O)c1 | inconclusive: 2.51 µM [inhibitor, partial curve] | 
O=C(CN1C(=O)c2cccc3cccc1c23)Nc1ccc(S(=O)(=O)Nc2nccs2)cc1 | inconclusive: 20 µM [quencher, side channel, partial curve] | 
O=C(NCc1cccs1)c1ccc([N+](=O)[O-])cc1Cl | inconclusive: 14.1 µM [quencher, side channel, partial curve] | 
Cn1c(=O)c2c(nc(-n3ccnc3)n2Cc2ccc([N+](=O)[O-])cc2)n(C)c1=O | inconclusive: 0.398 µM [quencher, side channel, full curve, poor fit] | 
Cc1ccccc1NC(=S)Nc1cccc([N+](=O)[O-])c1 | inconclusive: 22.4 µM [quencher, side channel, single point] | 
O=C(CSc1nc2ccccc2s1)NC1CCS(=O)(=O)C1 (stereo not given) | inactive | 

SMILES | Potency | activity change, negative = inhibition
S=C(NCc1ccccc1)NCc1ccccc1Cl | inactive | 
CC(=O)N(CN1C(=O)c2ccc([N+](=O)[O-])cc2C1=O)c1cccc(C(=O)O)c1 | inconclusive: 14.1 µM [quencher, side channel, partial curve] | 
CCCn1nc(NC(=O)c2ccncc2)c2cc3ccccc3nc21 | inconclusive: 12.6 µM [quencher, side channel, partial curve] | 
CC(Cl)C(=O)Nc1ccccc1C#N (stereo not given) | inconclusive: 2.24 µM [quencher, side channel, single point] | 
O=C(CSc1ccccn1)Nc1ccc(F)c([N+](=O)[O-])c1 | inconclusive: 25.1 µM [quencher, partial curve] | 
Cc1nonc1OCCN1CCN(c2ccccc2[N+](=O)[O-])CC1 | inconclusive: 20 µM [quencher, side channel, partial curve] | 
COc1ccc(-c2nnn(CC(=O)N(CCCN3CCOCC3)C(C(=O)NC3CCCC3)c3ccco3)n2)cc1 (stereo not given) | inactive | 
CCCCOC(=O)Nc1ccc(C(N)=O)cc1 | inactive | 
Cc1ccc(F)cc1NC(=O)C12CC3CC(C1)CC(n1cnc([N+](=O)[O-])n1)(C3)C2 | inconclusive: 22.4 µM [quencher, single point] | 
O=C(Nc1cccc2nsnc12)c1ccc(F)cc1 | inconclusive: 28.2 µM [quencher, side channel, partial curve] | 
CCOc1ccc(C2C=C(c3ccccc3)Nc3ncnn32)cc1 (stereo not given) | inconclusive: 31.6 µM [quencher, side channel, single point] | 
COC(=O)C(C)N1C(=O)S/C(=C\c2ccc(-c3ccc(C(=O)O)cc3C)o2)C1=O (stereo not given) | inconclusive: 31.6 µM [quencher, side channel, single point] | 
COc1ccc(-c2cc(C)nc(SCC(=O)c3cccc([N+](=O)[O-])c3)n2)cc1 | inactive | 
Brc1ccc(-c2cnnc(N3CCCC3)n2)cc1 | inconclusive: 12.6 µM [quencher, side channel, partial curve] | 
Cc1cc(C)n2c3c(c(C#N)c2n1)CC(C)(C)OC3 | inconclusive: 39.8 µM [quencher, single point] | 
Cc1cc(C(=O)COC(=O)c2ccc([N+](=O)[O-])o2)c(C)n1CC1CCCO1 (stereo not given) | inconclusive: 8.91 µM [quencher, side channel, partial curve] | 
Cc1cc(N)ccc1S(C)(=O)=O | inconclusive: 20 µM [fluorescent, side channel, partial curve, poor fit] | 
O=C(CC1C(=O)NCCN1C(=O)c1ccc([N+](=O)[O-])cc1)Nc1cccc(Cl)c1 (stereo not given) | inconclusive: 15.8 µM [quencher, partial curve] | 
CCOC(=O)c1nn(-c2ccc(Cl)cc2)c(=O)c(C#N)c1C | inconclusive: 5.62 µM [quencher, side channel, partial curve] | 
CCN(CC)c1ccc(C(=O)NC(=S)N2CCN(Cc3ccc4c(c3)OCO4)CC2)cc1 | inconclusive: 0.224 µM [inhibitor, full curve, poor fit] | 

SMILES | Potency | activity change, negative = inhibition
COc1ccc(Cl)cc1Nc1nc(NCCO)nc(N2CCCC2)n1 | inconclusive: 3.16 µM [quencher, side channel, single point] | 
CN(C)c1ccc(/C=C/C(=O)c2c(O)c3ccccc3oc2=O)cc1 | inactive | 
Cn1cnc([N+](=O)[O-])c1Nc1ccc(O)cc1 | inconclusive: 20 µM [quencher, side channel, partial curve] | 
Cc1cc2cc(CNS(=O)(=O)N(C)C)ccc2[nH]1 | inconclusive: 39.8 µM [quencher, side channel, single point] | 
CCN(Cc1ccccc1)S(=O)(=O)c1ccc(C(=O)Nc2nnc(-c3ccccc3OC)o2)cc1 | inactive | 
Cc1ccccc1NC(=O)CCCSc1nc2ccccc2s1 | inactive | 
N#CCC(=O)N/N=C/c1cc([N+](=O)[O-])ccc1N1CCCC1 | inconclusive: 17.8 µM [quencher, side channel, partial curve] | 
CC(=O)N1CCc2c(sc(NC(=O)c3cccc(N4C(=O)CCC4=O)c3)c2C(N)=O)C1 | inconclusive: 7.94 µM [quencher, side channel, full curve] | 
CSc1ccc(C(=O)C2CCCN(C(=O)c3cccc(N4CCOCC4)c3)C2)cc1 (stereo not given) | inconclusive: 22.4 µM [quencher, side channel, partial curve] | 
CC(C)(C)CNc1cc(N2CCOCC2)ccc1[N+](=O)[O-] | inconclusive: 15.8 µM [quencher, side channel, partial curve] | 
O=[N+]([O-])c1ccc(Nc2ccc(N3CCOCC3)cc2)c([N+](=O)[O-])c1 | inconclusive: 0.708 µM [quencher, side channel, full curve] | 
O=C(O)c1ccc2c(=O)n3c(nc2c1)/C(=C/c1ccccc1Br)CC3 | inconclusive: 3.16 µM [quencher, side channel, full curve, poor fit] | 
COc1ccccc1OCC(=O)NNc1c2ccccc2nc2ccccc12 | inconclusive: 12.6 µM [quencher, side channel, partial curve] | 
O=c1[nH]c(CSc2ncccn2)nc2c1cnn2-c1ccccc1 | inconclusive: 0.355 µM [fluorescent, side channel, partial curve] | 
Cc1onc(-c2ccccc2Cl)c1C(=O)Nc1nnc(-c2cccc([N+](=O)[O-])c2)s1 | inconclusive: 2 µM [quencher, side channel, partial curve, poor fit] | 
Cc1nn(CC(=O)OCCOc2ccc(Br)cc2)c(C)c1[N+](=O)[O-] | inactive | 
COn1c(=O)c(-c2ccc(Cl)cc2)[n+]([O-])c2ccccc21 | inconclusive: 12.6 µM [quencher, side channel, partial curve] | 
CNC(=S)N/N=C/c1ccc(-c2cccc(C(=O)O)c2)o1 | inconclusive: 11.2 µM [quencher, side channel, partial curve] | 
Cc1ccc(NC(=O)c2cc(-n3cnnc3)ccc2Cl)cc1 | inactive | 
COC(=O)c1ccccc1S(=O)(=O)NNC(=O)c1ccccc1-n1cccc1 | inconclusive: 28.2 µM [quencher, side channel, single point] | 

From PubChem BioAssay AID2675 (National Center for Advancing Translational Sciences (NCATS), 2010)
